At least one compound was matched to its structure with a doubt left.
Legend:
XIAP-BIR3 = XIAP-BIR3 (Homo sapiens (Human), UniProt P98170); test: BIR binding assay (FRET competition), XIAP BIR3; details: fold separation (FS) for XIAP
Procedure: (§1) The BIR domain binding assays are FRET based competition assays that utilize His-tagged versions of each of the BIR2 and BIR3 domains from cIAP1, cIAP2, and XIAP (each domain assayed separately) each at a custom optimal concentration and a probe, 200 nM SMAC/DIABLO peptide […] labelled with AlexaFluor647 (part #crb 1110326h, Discovery Peptides). The assay is conducted in 50 mM HEPES, […], 1 mM CHAPS, 5% Glycerol, 1 mM DTT, in dI water with a final pH of 7.4 and final volume of 20 uL. Final protein domain concentrations are: 50 nM cIAP1-BIR3 (Part #APT-11-370 Reaction Biology), 100 nM XIAP-BIR3 (Part #APT-11-351 Reaction Biology), 200 nM XIAP-BIR2 (Part #APT-11-470 Reaction Biology), 325 nM cIAP2-BIR2 (Part #APT-11-489 Reaction Biology), 50 nM cIAP2-BIR3 (Part #APT-11-372 Reaction Biology), 325 nM cIAP1-BIR2 (Part #APT-11-487 Reaction Biology). Compounds were plated using a HP Tecan D300 printer in a final total volume of 202 nl and DMSO concentration normalized across the 15-point, 3-fold dilution series. Peptide and probe were prepared at 2× relative to the concentrations above in binding buffer, 10 uL added to the prepared compound plates, and incubated for 60 minutes. LANCE Eu-W1024 (part #AD0401 Perkin Elmer #, vendor) was prepared at 2× concentration in binding buffer for final concentration of 2 nM, 10 uL added to each well, and plates incubated for 30 minutes. Plates were read on an ENVISION multifunction plate reader with […] laser excitation to obtain the 615 nm/665 nm emission ratio as indicative of probe:protein proximity. Data was analyzed using GraphPad PRISM and curves fit using log(inhibitor) vs. response—Variable slope (four […] method to obtain IC50 and pIC50 values.

cIAP1-BIR3 = cIAP1-BIR3 (Homo sapiens (Human), UniProt Q13490); test: BIR binding assay (FRET competition), cIAP1 BIR3; details: for cIAP1 BIR3 vs BIR2 separation window: fold separation (FS) for cIAP1
Procedure: as §1

cIAP2-BIR3 = cIAP2-BIR3 (Homo sapiens (Human), UniProt Q13489); test: BIR binding assay (FRET competition), cIAP2 BIR3; details: fold separation (FS) for cIAP2
Procedure: as §1

cIAP1-BIR3, sequence (Q13490 253-363): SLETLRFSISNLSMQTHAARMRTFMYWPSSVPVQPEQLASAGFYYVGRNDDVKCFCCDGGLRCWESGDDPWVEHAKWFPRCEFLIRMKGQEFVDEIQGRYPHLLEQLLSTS
XIAP-BIR3, sequence (P98170 241-356): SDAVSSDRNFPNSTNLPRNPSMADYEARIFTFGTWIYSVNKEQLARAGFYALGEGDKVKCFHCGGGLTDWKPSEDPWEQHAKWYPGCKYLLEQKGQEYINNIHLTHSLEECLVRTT
cIAP2-BIR3, sequence (Q13489 238-349): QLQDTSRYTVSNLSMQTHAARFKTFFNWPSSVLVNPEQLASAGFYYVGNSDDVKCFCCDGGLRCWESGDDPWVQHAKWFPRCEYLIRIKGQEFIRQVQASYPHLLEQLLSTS

In the case of `C[C@@H]1CN(CC(=O)N2CC(C)(C)c3[nH]c(=O)c(Cc4ccc(F)cc4)cc32)[C@@H](CN2CCN(C(=O)Cc3ccc(CC(=O)N4CCN(C[C@H]5CN[C@H](C)CN5CC(=O)N5CC(C)(C)c6[nH]c(=O)c(Cc7ccc(F)cc7)cc65)[C@H](C)C4)cc3)C[C@H]2C)CN1` [Example 12, 1,1′-(2,2′-((3R,3′R,6R,6′R)-(((2R,2′R)-(2,2′-(1,4-phenylene)bis(acetyl))bis(2-methylpiperazine-4,1-diyl))bis(methylene))bis(3-methylpiperazine-6,1-diyl))bis(acetyl))bis(6-(4-fluorobenzyl)-3,3-dimethyl-1,2,3,4-tetrahydro-5H-pyrrolo[3,2-b]pyridin-5-one)], the “XIAP BIR3 vs BIR2 separation window” value (XIAP-BIR3) is reported as “++++ (FS>10,000)”, the “cIAP1 BIR3 vs BIR2 separation window” value (cIAP1-BIR3) is reported as “++ (1,000>FS>100)” and the “cIAP2 BIR3 vs BIR2 separation window” value (cIAP2-BIR3) is reported as “++ (1,000>FS>100)”.
For `C[C@@H]1CN(CC(=O)N2CC(C)(C)c3[nH]c(=O)c(Cc4ccc(F)cc4)cc32)[C@@H](CN2CCN(C(=O)c3ccnc(-c4cc(C(=O)N5CCN(C[C@H]6CN[C@H](C)CN6CC(=O)N6CC(C)(C)c7[nH]c(=O)c(Cc8ccc(F)cc8)cc76)[C@H](C)C5)ccn4)c3)C[C@H]2C)CN1` [Example 23, 1,1′-(2,2′-((3R,3′R,6R,6′R)-(((2R,2′R)-([2,2′-bipyridine]-4,4′-dicarbonyl)bis(2-methylpiperazine-4,1-diyl))bis(methylene))bis(3-methylpiperazine-6,1-diyl))bis(acetyl))bis(6-(4-fluorobenzyl)-3,3-dimethyl-1,2,3,4-tetrahydro-5H-pyrrolo[3,2-b]pyridin-5-one)], the “XIAP BIR3 vs BIR2 separation window” value (XIAP-BIR3) was “++++ (FS>10,000)”, the “cIAP1 BIR3 vs BIR2 separation window” value (cIAP1-BIR3) was “+++ (10,000>FS>1,000)” and the “cIAP2 BIR3 vs BIR2 separation window” value (cIAP2-BIR3) was “+++ (10,000>FS>1,000)”.
In the case of `C[C@@H]1CN(CC(=O)N2CC(C)(C)c3[nH]c(=O)c(Cc4ccc(F)cc4)cc32)[C@@H](CN2CCN(C(=O)CCCCC(=O)N3CCN(C[C@H]4CN[C@H](C)CN4CC(=O)N4CC(C)(C)c5[nH]c(=O)c(Cc6ccc(F)cc6)cc54)[C@H](C)C3)C[C@H]2C)CN1` [Example 1, 1,6-bis((R)-4-(((2R,5R)-1-(2-(6-(4-fluorobenzyl)-3,3-dimethyl-5-oxo-2,3,4,5-tetrahydro-1H-pyrrolo[3,2-b]pyridin-1-yl)-2-oxoethyl)-5-methylpiperazin-2-yl)methyl)-3-methylpiperazin-1-yl)hexane-1,6-dione], the “XIAP BIR3 vs BIR2 separation window” value (XIAP-BIR3) is reported as “++ (1,000>FS>100)”, the “cIAP1 BIR3 vs BIR2 separation window” value (cIAP1-BIR3) is reported as “++ (1,000>FS>100)” and the “cIAP2 BIR3 vs BIR2 separation window” value (cIAP2-BIR3) is reported as “++ (1,000>FS>100)”.
For `C[C@@H]1CN(CC(=O)N2CC(C)(C)c3[nH]c(=O)c(Cc4ccc(F)cc4)cc32)[C@@H](CN2CCN(C(=O)COc3ccccc3OCC(=O)N3CCN(C[C@H]4CN[C@H](C)CN4CC(=O)N4CC(C)(C)c5[nH]c(=O)c(Cc6ccc(F)cc6)cc54)[C@H](C)C3)C[C@H]2C)CN1` [Example 8, 1,1′-(2,2′-((3R,3′R,6R,6′R)-(((2R,2′R)-(2,2′-(1,2-phenylenebis(oxy))bis(acetyl))bis(2-methylpiperazine-4,1-diyl))bis(methylene))bis(3-methylpiperazine-6,1-diyl))bis(acetyl))bis(6-(4-fluorobenzyl)-3,3-dimethyl-1,2,3,4-tetrahydro-5H-pyrrolo[3,2-b]pyridin-5-one)], the “XIAP BIR3 vs BIR2 separation window” value (XIAP-BIR3) was “++++ (FS>10,000)”, the “cIAP1 BIR3 vs BIR2 separation window” value (cIAP1-BIR3) was “++ (1,000>FS>100)” and the “cIAP2 BIR3 vs BIR2 separation window” value (cIAP2-BIR3) was “++ (1,000>FS>100)”.
In the case of `C[C@@H]1CN(CC(=O)N2CC(C)(C)c3[nH]c(=O)c(Cc4ccc(F)cc4)cc32)[C@@H](CN2CCN(C(=O)Cc3ccccc3CC(=O)N3CCN(C[C@H]4CN[C@H](C)CN4CC(=O)N4CC(C)(C)c5[nH]c(=O)c(Cc6ccc(F)cc6)cc54)[C@H](C)C3)C[C@H]2C)CN1` [Example 7, 1,1′-(2,2′-((3R,3′R,6R,6′R)-(((2R,2′R)-(2,2′-(1,2-phenylene)bis(acetyl))bis(2-methylpiperazine-4,1-diyl))bis(methylene))bis(3-methylpiperazine-6,1-diyl))bis(acetyl))bis(6-(4-fluorobenzyl)-3,3-dimethyl-1,2,3,4-tetrahydro-5H-pyrrolo[3,2-b]pyridin-5-one)], the “XIAP BIR3 vs BIR2 separation window” value (XIAP-BIR3) is reported as “++ (1,000>FS>100)”, the “cIAP1 BIR3 vs BIR2 separation window” value (cIAP1-BIR3) is reported as “++ (1,000>FS>100)” and the “cIAP2 BIR3 vs BIR2 separation window” value (cIAP2-BIR3) is reported as “++ (1,000>FS>100)”.
`C[C@@H]1CN(CC(=O)N2CC(C)(C)c3[nH]c(=O)c(Cc4ccc(F)cc4)cc32)[C@@H](CN2CCO[C@H](COc3cccc(OC[C@@H]4CN(C[C@H]5CN[C@H](C)CN5CC(=O)N5CC(C)(C)c6[nH]c(=O)c(Cc7ccc(F)cc7)cc65)CCO4)c3F)C2)CN1` [Example 72, 1,1′-(2,2′-((3R,3′R,6R,6′R)-(((2S,2'S)-(((2-fluoro-1,3-phenylene)bis(oxy))bis(methylene))bis(morpholine-2,4-diyl))bis(methylene))bis(3-methylpiperazine-6,1-diyl))bis(acetyl))bis(6-(4-fluorobenzyl)-3,3-dimethyl-1,2,3,4-tetrahydro-5H-pyrrolo[3,2-b]pyridin-5-one)] was tested, and the “XIAP BIR3 vs BIR2 separation window” value (XIAP-BIR3) was “+++ (10,000>FS>1,000)”, the “BIR3 selectivity compared to BIR2” value (cIAP1-BIR3; cIAP1, cIAP2 and XIAP, FIG. 2) was “preferred BIR3, cIAP1, cIAP2, and XIAP selectivity compared to their selectivity to BIR2” and the “cIAP1 BIR3 vs BIR2 separation window” value (cIAP1-BIR3) was “++ (1,000>FS>100)”. For the same compound, the “cIAP2 BIR3 vs BIR2 separation window” value (cIAP2-BIR3) was “+++ (10,000>FS>1,000)”.
